Among the targets are Flag-tagged STING-CDN (UniProt Q86WV6); Flag-tagged STING-TM (UniProt Q86WV6); Flag-tagged STING-ΔC (UniProt Q86WV6); Flag-tagged STING-ΔTM (UniProt Q86WV6).
What all share (assay): co-IP
In test [1] the target is T1, Flag-tagged IRF3 (Flag-IRF3) (UniProt Q14653).
T1 sequence: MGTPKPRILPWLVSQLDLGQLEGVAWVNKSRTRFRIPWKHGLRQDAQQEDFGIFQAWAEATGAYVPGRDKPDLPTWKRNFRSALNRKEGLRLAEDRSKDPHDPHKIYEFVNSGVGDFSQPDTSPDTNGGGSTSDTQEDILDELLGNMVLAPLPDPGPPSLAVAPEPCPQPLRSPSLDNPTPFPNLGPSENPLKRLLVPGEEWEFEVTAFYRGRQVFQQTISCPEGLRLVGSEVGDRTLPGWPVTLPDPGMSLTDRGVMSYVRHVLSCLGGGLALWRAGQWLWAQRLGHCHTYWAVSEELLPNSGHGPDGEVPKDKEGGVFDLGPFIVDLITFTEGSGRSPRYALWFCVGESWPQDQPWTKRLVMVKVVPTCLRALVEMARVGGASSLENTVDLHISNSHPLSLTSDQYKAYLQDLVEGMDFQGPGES

By UniProt entry, the sequences of proteins in these tests, tags left out. Where a name states a change or a piece, a line headed by the entry shows the natural chain unless it says otherwise. Chains listed by the source or under a name are the forms on record and can include a tag or linker. Residues count along the entry.
UniProt Q86WV6: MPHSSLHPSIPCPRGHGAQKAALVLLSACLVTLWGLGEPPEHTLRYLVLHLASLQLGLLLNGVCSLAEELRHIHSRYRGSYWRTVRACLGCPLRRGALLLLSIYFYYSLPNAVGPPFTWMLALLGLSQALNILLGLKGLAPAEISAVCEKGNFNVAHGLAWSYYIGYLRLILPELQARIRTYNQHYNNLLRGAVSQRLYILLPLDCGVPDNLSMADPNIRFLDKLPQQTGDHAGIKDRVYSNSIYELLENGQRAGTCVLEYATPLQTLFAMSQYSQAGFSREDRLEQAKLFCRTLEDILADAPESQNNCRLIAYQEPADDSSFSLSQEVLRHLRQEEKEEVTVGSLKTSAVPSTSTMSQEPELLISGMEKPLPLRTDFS
Flag-tagged STING-ΔC: residues 1-339 of Q86WV6
Flag-tagged STING-TM: residues 1-153 of Q86WV6
Flag-tagged STING-ΔTM: residues 153-379 of Q86WV6
Flag-tagged STING-CDN: residues 153-339 of Q86WV6
UniProt P07355: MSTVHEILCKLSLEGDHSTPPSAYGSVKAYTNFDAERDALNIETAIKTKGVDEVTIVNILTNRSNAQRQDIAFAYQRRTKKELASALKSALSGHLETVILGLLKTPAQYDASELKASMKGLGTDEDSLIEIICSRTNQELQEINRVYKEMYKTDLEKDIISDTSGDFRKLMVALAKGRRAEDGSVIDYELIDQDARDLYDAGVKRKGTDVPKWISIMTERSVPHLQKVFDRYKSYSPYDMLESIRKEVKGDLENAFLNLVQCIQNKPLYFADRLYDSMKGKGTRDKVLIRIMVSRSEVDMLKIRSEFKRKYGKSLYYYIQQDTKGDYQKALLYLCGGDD
UniProt P07356: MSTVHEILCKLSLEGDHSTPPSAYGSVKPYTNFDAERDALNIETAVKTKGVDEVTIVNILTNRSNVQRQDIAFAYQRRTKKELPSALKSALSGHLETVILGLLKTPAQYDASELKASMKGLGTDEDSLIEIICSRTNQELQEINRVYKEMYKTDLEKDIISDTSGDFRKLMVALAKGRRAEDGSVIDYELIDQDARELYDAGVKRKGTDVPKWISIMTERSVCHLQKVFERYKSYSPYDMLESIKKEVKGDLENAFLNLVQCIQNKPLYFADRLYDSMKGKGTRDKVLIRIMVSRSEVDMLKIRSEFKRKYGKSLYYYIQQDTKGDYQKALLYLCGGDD

Test [2] addresses Flag-tagged STING (Flag-STING) (UniProt Q86WV6).
Test [3] has as its target T2, endogenous IRF3 of mouse peritoneal macrophages (mouse (endogenous in peritoneal macrophages)) (UniProt P70671).
T2 sequence: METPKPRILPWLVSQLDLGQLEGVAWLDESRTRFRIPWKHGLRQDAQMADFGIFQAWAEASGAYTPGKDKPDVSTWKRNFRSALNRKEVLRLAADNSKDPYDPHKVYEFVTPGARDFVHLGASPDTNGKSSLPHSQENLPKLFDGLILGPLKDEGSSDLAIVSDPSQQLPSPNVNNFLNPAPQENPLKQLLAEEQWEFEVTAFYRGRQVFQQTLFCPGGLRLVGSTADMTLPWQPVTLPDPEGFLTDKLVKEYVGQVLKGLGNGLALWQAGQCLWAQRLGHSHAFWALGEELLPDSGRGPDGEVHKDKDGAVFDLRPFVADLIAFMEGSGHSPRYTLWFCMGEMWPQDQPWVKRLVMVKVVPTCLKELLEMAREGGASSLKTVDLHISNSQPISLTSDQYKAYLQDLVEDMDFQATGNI

The target in test [4] is T3, endogenous STING of mouse peritoneal macrophages (mouse (endogenous in peritoneal macrophages)) (UniProt Q3TBT3).
T3 sequence: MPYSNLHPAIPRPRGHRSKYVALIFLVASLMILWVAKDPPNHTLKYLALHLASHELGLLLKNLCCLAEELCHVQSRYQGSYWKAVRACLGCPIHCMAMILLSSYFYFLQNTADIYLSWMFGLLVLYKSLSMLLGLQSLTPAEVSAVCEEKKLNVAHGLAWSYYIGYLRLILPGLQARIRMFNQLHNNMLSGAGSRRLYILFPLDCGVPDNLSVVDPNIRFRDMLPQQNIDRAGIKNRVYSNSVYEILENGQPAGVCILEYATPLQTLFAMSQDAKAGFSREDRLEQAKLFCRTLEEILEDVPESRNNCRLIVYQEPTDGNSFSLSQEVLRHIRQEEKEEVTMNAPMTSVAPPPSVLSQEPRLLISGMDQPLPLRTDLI

No constants are given. Whether binding was seen depends on the method and setting. In cells and extracts the contact can be indirect. Some binding calls cover weakened binding; strength is not graded here. For some assays here: Sequences can lack the tags named with a protein.

In the case of “HA-tagged ANXA2-D1 (from UniProt P07355 1-102) (domain or fragment)”, the binding entry in test [1] is “no binding”. Turning to “HA-tagged ANXA2-D2 (from UniProt P07355 1-174) (domain or fragment)”, in test [1], the binding entry is “binds”.

Turning to “HA-tagged ANXA2-D3 (from UniProt P07355 1-259) (domain or fragment)”, the binding result in test [1] is “binds”. As for “HA-tagged ANXA2-D4 (from UniProt P07355 50-339) (domain or fragment)”, the binding entry in test [1] was “binds”. On to “HA-tagged ANXA2-D5 (from UniProt P07355 122-339) (domain or fragment)”, for which, in test [1], the binding entry is reported as “binds”. On the same count and under the same terms, then “HA-tagged ANXA2-D6 (from UniProt P07355 207-339) (domain or fragment)”, with “binds”. Take “HA-tagged Annexin A2 (HA-ANXA2) (from UniProt P07355 1-339)”: the binding result was “binds” in test [1]; “binds” in test [2]; “no binding” with Flag-tagged STING-CDN; “binds” in the test with Flag-tagged STING-TM; “binds” in the test with Flag-tagged STING-ΔC; “no binding” in the test with Flag-tagged STING-ΔTM. On to “endogenous ANXA2 of mouse peritoneal macrophages (from UniProt P07356 1-339)”, for which the binding result in test [3] and in test [4] was “binds” throughout.

(Values after article PMC13288828.)
